Laboratory results from PubChem BioAssay AID1508642 (National Center for Advancing Translational Sciences (NCATS), 2021).
Hit rate of the full screen: of about 43,000 compounds, about 200 (0.47%) were called active. Inconclusive results (about 12%) are left out. Calls come from the whole dose curve; as a rule, active = well fitted cell-killing curve with a large enough effect; inconclusive = small, poorly fitted or top-dose-only effect, or effect the other way; inactive = flat fitted curve, though single readings scatter. This is one part of the list.

Test: Cell viability qHTS assay in S16 Pmp22-F2sN cells; note: nearly all actives have a fitted effect of over 65% in size
Conditions: S16 Pmp22-F2sN Schwann cells viability, CellTiter-Glo, 24 h; series mostly up to 57.5 µM; activity change, negative = cytotoxicity: at the top concentration
Procedure, shortened: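 S16 Pmp22-F2sN Schwann cells (500-1,000/well) in phenol-red-free DMEM with 10% FBS received 23 nL compound by pin tool for 24 h at 37 °C. Viability was then read as CellTiter-Glo luminescence after 15 min at room temperature.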
% is set by controls: 0 for no effect and ±100 for the full control effect.

Row | Structure (SMILES) | activity change, negative = cytotoxicity
1 | O=c1cc(-c2ccccc2)c2cc(Cl)c3c(c2o1)CN(Cc1ccccc1)CO3 | inactive: -0.932%
2 | COc1ccc(CC(=O)NCc2ccc3c(c2)CCN3C(=O)c2ccc(Cl)cc2)cc1OC | inactive: -9.13%
3 | Cc1cc(C)c2c(=O)cc(CSc3nnc(COc4ccccc4C)n3C)[nH]c2c1 | inactive: 17.5%
4 | COc1ccc(OC)c(NC(=O)CN2C(=O)c3ccccc3Sc3ccc(C(=O)N4CCCC4)cc32)c1 | inactive: -10.2%
5 | COc1ccc(N(Cc2cccs2)C(=O)Nc2ccccc2)cc1 | inactive: 12.5%
6 | Cc1cc(-c2ccc(C)c(S(=O)(=O)N(C)c3ccc(C)c(C)c3)c2)on1 | inactive: -13.4%
7 | COc1ccccc1NC(=O)Cn1c(=O)n(Cc2ccco2)c(=O)c2cccnc21 | inactive: 6.3%
8 | CCOC(=O)c1c(Oc2ccc(OC)cc2)nnc(-c2ccccc2)c1-c1ccccc1 | inactive: -24.7%
9 | NC(=O)C1(N2CCCCC2)CCN(C(=O)Nc2ccc(C(F)(F)F)cc2)CC1 | inactive: -0.269%
10 | Cc1ccc(NCc2ccccc2-c2nnc(-c3ccccc3Cl)o2)c(C)c1 | inactive: -11.6%
11 | Cc1ccc(CNS(=O)(=O)c2cc(C(=O)Nc3cccc(C(F)(F)F)c3)ccc2F)cc1 | inactive: 8.31%
12 | CCOCCCNC(=O)c1cc2c(-c3ccc(OC)c(OC)c3)nn(C)c2s1 | inactive: -4.11%
13 | COCCN1CCc2nc(SCC(=O)Nc3ccc(Br)cc3)[nH]c(=O)c2C1 | inactive: 12.5%
14 | Cc1nc2c(C(=O)NCCc3ccccc3)cnn2c(C)c1Cc1c(F)cccc1Cl | inactive: 14.7%
15 | Cc1c2cnn(CC(=O)NCc3ccc(F)cc3)c(=O)c2c(C)n1Cc1ccccc1F | inactive: -25.5%
16 | COc1ccc(Cl)cc1Nc1ncnc2c1c(-c1ccccc1)cn2-c1ccccc1 | inactive: 13.3%
17 | CC(C)(C)OC(=O)N1CCC(c2c(C(=O)NCc3cccs3)cnn2-c2ccc(F)cc2F)CC1 | inactive: -22.7%
18 | Cc1noc(/C=C/N(C)C)c1S(=O)(=O)N1CCCC(C(=O)Nc2ccc(F)cc2F)C1 (configuration not stated) | inactive: 2.46%
19 | COC(=O)c1ccccc1NC(=O)CCC(=O)N1CCOc2ccccc21 | inactive: 4.18%
20 | CCN(CC)C(=O)c1sc(NC(=O)C(C)Sc2nc(-c3ccccc3)cc(C(F)(F)F)n2)c(C(=O)OC)c1C (configuration not stated) | inactive: -23.7%
21 | CCN(c1ccccc1)c1nnc(NC(=O)Nc2cccc(Cl)c2C)s1 | inactive: -24.4%

Row | Structure (SMILES) | activity change, negative = cytotoxicity
22 | CSc1ccc(-c2nc3ncccn3c2Nc2ccc(C)c(C)c2)cc1 | inactive: -22.1%
23 | Nc1cc(=O)nc(SCC(=O)Nc2cccc(Cl)c2)n1CCc1ccccc1 | inactive: 7.65%
24 | CN(C)c1oc(/C=C/c2ccc(F)cc2)nc1C#N | inactive: 11.1%
25 | CCCC(=O)NCC(c1ccc2c(c1)OCO2)N1CCN(c2ccccc2)CC1 (configuration not stated) | inactive: -16.4%
26 | CCCCCOc1ccc(/C=C/C(=O)Nc2sc(C(C)=O)c(C)c2C(=O)OCC)cc1OC | inactive: 19%
27 | CCc1nnc(NC(=O)c2nc(SCc3ccccc3C)ncc2Cl)s1 | inactive: -0.258%
28 | CCc1ccc(-n2c(=O)c3sc4ccccc4c3n(Cc3cccc(F)c3)c2=O)cc1 | inactive: -7.61%
29 | CCCNC(=O)C1CCN(c2ncnc3c2nc2n3CCCCC2)CC1 | inactive: 1.22%
30 | Cc1c(Cl)cccc1NC(=O)Cn1c(=O)nc(-c2ccccc2)c2ccccc21 | inactive: 3.64%
31 | Cc1oc(C)c2c(=O)cc(-c3ccc4c(c3)OCO4)cc(OC(=O)c3ccccc3Cl)c12 | inactive: -8.33%
32 | Cc1cccc(NS(=O)(=O)c2ccc(-n3cccn3)cc2)c1C | inactive: -1.77%
33 | Cc1nn(C)c2c1c(C(F)(F)F)cc(=O)n2Cc1cccc(Br)c1 | inactive: 2.77%
34 | CC(C)CNc1nc(Oc2ccc(OCC(N)=O)nn2)nc(N2CCOCC2)n1 | inactive: -0.983%
35 | COc1ccccc1CNC(=O)c1ccc2nc(-c3ccccc3)c(-c3ccccc3)nc2c1 | inactive: -6.5%
36 | CCOc1ccc(CNC(=O)c2ccc(NC(=O)N3CCCCc4ccccc43)cc2)cc1OC | inactive: -1.6%
37 | CCn1cc(C(=O)NCc2ccc(C)cc2)c(=O)c2cc(S(=O)(=O)N3CCCCCC3)ccc21 | inactive: 24%
38 | O=C(CCc1nc2cccnc2n1Cc1cccs1)Nc1cccc(Cl)c1 | inactive: -4.6%
39 | CCOc1ccc(-n2c(-c3ccccc3)c(C)n3c4c(=O)n(C)c(=O)n(C)c4nc23)cc1 | inactive: 16.6%
40 | Cn1cc(S(=O)(=O)N2CCCCCC2)cc1C(=O)NCc1ccccc1Cl | inactive: -13.1%
41 | Cc1ccc(S(=O)(=O)N2CCOCC2)cc1C(=O)Nc1ccccc1C(=O)O | inactive: 11.3%
42 | O=S(=O)(Nc1ccc2nc(-c3cccc(Cl)c3)oc2c1)c1ccccc1 | inactive: 7.28%

Row | Structure (SMILES) | activity change, negative = cytotoxicity
43 | Cc1ccc2onc(CC(=O)N(C)c3ccccc3)c2c1 | inactive: -2.16%
44 | Cc1cccc(N2CCN(C3(c4ccccc4)C(=O)c4ccccc4C3=O)CC2)c1C | inactive: -6.18%
45 | O=S(=O)(Nc1nc2n(n1)C(c1ccc(F)cc1)C=C(c1ccccc1)N2)c1ccc(Cl)cc1 (configuration not stated) | inactive: 4.41%
46 | CN(C(=O)C(=O)Nc1ccc2nc3n(c(=O)c2c1)CCCCC3)c1cccc(C(F)(F)F)c1 | inactive: 7.53%
47 | CC(C)Sc1ncc(Cl)c(C(=O)Nc2nnc(C(C)C)s2)n1 | inactive: 24.2%
48 | CCc1ccc(NC(=O)Cn2c(=O)oc3cc(S(=O)(=O)N4CCCCCC4)ccc32)cc1 | inactive: -8.31%
49 | Cc1onc(-c2ccc(F)cc2F)c1C(=O)Nc1cccc(C(F)(F)F)c1 | inactive: -0.762%
50 | O=C(Nc1ccccc1)c1cccc(S(=O)(=O)Nc2cccc(F)c2)c1 | inactive: -4.07%
51 | COc1cccc(-c2ccc3c(N)c(C(=O)NCc4ccc(Cl)cc4)sc3n2)c1 | inactive: -9.16%
52 | O=C(CC(c1cccs1)N1Cc2ccccc2C1=O)Nc1ccc(F)c(Cl)c1 (configuration not stated) | inactive: 0.486%
53 | CC(=O)Nc1cc(C(=O)NCc2ccc(C)cc2)ccc1Sc1ccc(C)cc1 | inactive: -11.9%
54 | C=CCC(CC=C)(CNC(=O)C(=O)Nc1cccc(C(F)(F)F)c1)c1ccccc1 | inactive: -4.22%
55 | Cc1ccc(Oc2c(C(F)(F)F)oc3cc(OCC(=O)NC4CCCCC4)ccc3c2=O)cc1 | inactive: 23.8%
56 | CCCN1C(=O)C(O)(CC(=O)c2ccc(CC)cc2)c2ccccc21 (configuration not stated) | inactive: -24.6%
57 | CCc1cccc(C)c1NC(=O)CSc1nc(C)cc(C)c1C(=O)Nc1ccccc1 | inactive: -17.5%
58 | COc1ccc(-c2noc(-c3cccnc3NCc3ccco3)n2)cc1 | inactive: 19.9%
59 | CCC1CN(C(=O)N2CCC(C(=O)NCCN(CC)CC)CC2)c2ccccc2O1 (configuration not stated) | inactive: -11.1%
60 | CCOC(=O)CSc1nc2ccccc2c(=O)n1CCc1ccc(OC)c(OC)c1 | inactive: -22.3%
61 | Cc1c(Cl)cccc1NC(=O)C(C)n1c(=O)cc(-c2ccccc2)c2c(C)nn(C)c21 (configuration not stated) | inactive: -1.75%
62 | COc1ccccc1CNC(=O)CSc1ncc2c(n1)-c1ccc(Cl)cc1N(Cc1ccccc1)S2(=O)=O | inactive: -1.52%
